Reference: PubChem BioAssay AID651582 (Sanford-Burnham Center for Chemical Genomics, 2012)
This is one part of the list. Shown are side measurements of this screen, not its main read-out; they come without a call. Compounds called inactive in the main read-out are mostly missing here.

Experiment: TAG lipid buildup reduction in H9c2 cells – cell-based, uHTS, fluorescence, primary screen (AID 651582)
Conditions: Nile Red lipid (TAG) fluorescence, measured here:, at 12.5 µM; cells loaded with 200 µM oleic acid unless noted

Row | SMILES | DAPI nuclei signal change (viability), lower = more cytotoxic
1 | C=C1C(=O)O[C@@H]2C[C@@H](C)[C@@H]3C4OC4C(=O)[C@@]3(C)[C@@H](O)[C@H]12 (stereo not given in full) | -25.6% [setting not given]
2 | CCOC(=O)c1c(N)n(CCCOC(=O)c2ccco2)c2nc3ccccc3nc12 | -11.1% [setting not given]
3 | CN1CCC(N(C)c2nc(-c3ccc([N+](=O)[O-])cc3)nc3ccccc23)CC1 | -27.1% [setting not given]
4 | COC(=O)C1=C(c2cc3ccccc3s2)C[C@@H]2CC[C@H]1N2C(=O)N1CCOCC1 | -39.2%
5 | Ic1ccccc1CN[C@@H]1C2CCN(CC2)[C@@H]1C(c1ccccc1)c1ccccc1 | -42.4%
6 | COCCCn1c(N)c(C(=O)Nc2ccccc2)c2nc3ccccc3nc21 | 15.2% [setting not given]
7 | C=C1C(=O)O[C@@H]2C[C@@H](C)[C@@H]3C=CC(=O)[C@@]3(C)[C@@H](O)[C@H]12 | -50%
8 | C=C1C(C)C2C(Cc3ccccc3)NC(=O)C23C(OC(C)=O)C=CC(C)(O)CC(C)CC=CC3C1O (stereo not given) | -44.5%
9 | COC(=O)C1=C(c2ccc(OCc3ccccc3)cc2)C[C@@H]2CC[C@H]1N2C(=O)NCc1ccc(OC)c(OC)c1 | -7.8%
10 | COC(=O)[C@]12OC[C@]34C([C@@H](O)[C@@H]1O)[C@]1(C)CC(=O)C(O)=C(C)[C@@H]1C[C@H]3OC(=O)[C@H](O)[C@@H]24 (stereo not given in full) | -45.1% [setting not given]
11 | CC1=CC(=C2C(=O)NC(=S)NC2=O)C=C(C(F)(F)F)N1Cc1ccccc1 | -43.9% [setting not given]
12 | O=[N+]([O-])c1ccc(N2CCOCC2)c2c1no[n+]2[O-] | 136%
13 | COc1ccc(C2=CC(c3ccc4c(c3)OCO4)c3c(c4ccccc4oc3=O)O2)cc1OC (stereo not given) | -35.8%
14 | CC1CCC(C(C)C)C(OC(=O)Cn2c(COc3ccccc3)[n+](C)c3ccccc32)C1 (stereo not given) | -39.8% [setting not given]
15 | COC1=C(C)C(=O)C2=C(C1=O)C(CO)N1C(C#N)C3CC4C(C1C2N1CCOC41)N3C (stereo not given) | -39.7%
16 | CC(=O)OC12COC1CC(O)C1(C)C(=O)C(O)C3=C(C)C(O)CC(O)(C(OC(=O)c4ccccc4)C21)C3(C)C (stereo not given) | -24.7%
17 | COc1ccc2[nH]c(C)c(CCNCc3cn(C)c4ccccc34)c2c1 | -17%
18 | COc1cc2c(c(OC)c1OC)-c1ccc(O)cc1C(NC(C)=O)CC2 (stereo not given) | -37.1%
19 | COc1cccc(N=Nc2c(O)[nH]c(=S)[nH]c2=O)c1 | -45.4% [setting not given]
20 | CC[C@@H](O)C[C@H]1CCC[C@@]2(C[C@@H]3OC(=O)/C=C/[C@@](C)(O)[C@@H](O)[C@H](C)[C@@H](O)[C@H](OC4CCC(N(C)C)C(C)O4)[C@@H](O)[C@](C)(O)CCCCC/C=C/[C@@H]4CC(C)(C)O[C@@]4(O)C[C@H](O2)[C@H]3C)O1 (stereo not given in full) | -34.4%
